No constants are given. Whether binding was seen depends on the method and setting. Binding seen in cells or lysates may run through a third protein. Some binding calls cover weakened binding; strength is not graded here. For some assays here: Tags and fused reporters may be left off the sequences shown.

The chains behind the UniProt entries cited, without tags or fusion partners.
UniProt P40763: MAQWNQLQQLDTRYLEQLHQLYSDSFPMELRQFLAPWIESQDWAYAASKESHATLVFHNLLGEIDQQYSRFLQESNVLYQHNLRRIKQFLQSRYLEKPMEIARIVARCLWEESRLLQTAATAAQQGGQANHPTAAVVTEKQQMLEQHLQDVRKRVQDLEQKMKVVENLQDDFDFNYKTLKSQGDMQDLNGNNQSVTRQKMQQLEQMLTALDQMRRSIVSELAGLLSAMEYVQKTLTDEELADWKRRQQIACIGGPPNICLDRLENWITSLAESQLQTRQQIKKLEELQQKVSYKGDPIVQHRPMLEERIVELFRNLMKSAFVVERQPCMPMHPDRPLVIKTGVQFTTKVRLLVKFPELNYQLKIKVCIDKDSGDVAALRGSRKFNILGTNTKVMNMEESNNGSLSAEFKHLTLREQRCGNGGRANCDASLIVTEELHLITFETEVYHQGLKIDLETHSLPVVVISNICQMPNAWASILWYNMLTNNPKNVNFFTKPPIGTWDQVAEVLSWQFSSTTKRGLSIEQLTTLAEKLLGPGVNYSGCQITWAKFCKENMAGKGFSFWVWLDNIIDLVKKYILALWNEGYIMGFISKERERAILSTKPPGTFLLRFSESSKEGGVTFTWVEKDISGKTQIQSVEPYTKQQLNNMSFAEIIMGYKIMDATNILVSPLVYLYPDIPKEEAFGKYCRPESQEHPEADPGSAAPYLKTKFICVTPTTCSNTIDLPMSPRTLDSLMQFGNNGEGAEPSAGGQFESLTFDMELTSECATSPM
UniProt Q99873: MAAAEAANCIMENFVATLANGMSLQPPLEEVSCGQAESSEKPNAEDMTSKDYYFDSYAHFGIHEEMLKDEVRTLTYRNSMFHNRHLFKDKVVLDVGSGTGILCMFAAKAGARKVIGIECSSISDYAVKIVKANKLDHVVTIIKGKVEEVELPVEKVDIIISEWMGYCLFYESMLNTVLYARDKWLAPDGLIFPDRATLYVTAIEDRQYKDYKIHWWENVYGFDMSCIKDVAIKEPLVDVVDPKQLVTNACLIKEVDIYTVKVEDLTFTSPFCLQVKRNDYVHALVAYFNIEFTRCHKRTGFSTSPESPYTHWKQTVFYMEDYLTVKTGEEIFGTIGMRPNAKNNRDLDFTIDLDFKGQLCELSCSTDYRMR

This passage reports binding results from article PMC9508122.

For test [1], the target named is T1, TIPE1-Flag, full-length TIPE1 (FL) (UniProt Q8WVP5).
T1 sequence: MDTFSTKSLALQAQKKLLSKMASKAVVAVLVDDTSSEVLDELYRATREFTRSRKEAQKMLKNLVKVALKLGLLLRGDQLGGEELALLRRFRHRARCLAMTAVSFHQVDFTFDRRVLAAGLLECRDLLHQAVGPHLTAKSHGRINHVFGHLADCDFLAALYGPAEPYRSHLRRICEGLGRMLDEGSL
Nature of the test: proximity ligation; Duolink in situ PLA in MNNG/HOS Cl #5 cells overexpressing TIPE1-Flag and PRMT1-HA.

Test [2] addresses T2, TIPE1 M1 truncation (1-100aa) (UniProt Q8WVP5).
T2 sequence: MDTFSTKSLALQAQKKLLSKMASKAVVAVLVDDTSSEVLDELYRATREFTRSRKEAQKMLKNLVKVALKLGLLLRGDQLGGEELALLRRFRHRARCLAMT
Nature of the test: co-IP; HEK-293T cells transfected with Flag-tagged TIPE1 (or its truncations) and HA-tagged PRMT1 (full length or truncations), harvested 24 h after transfection; lysates with anti-HA or anti-Flag antibody, protein G agarose; western blot.

Test [3] deals with T1, TIPE1-Flag, full-length TIPE1 (FL). The test is described as above.
The target of test [4] is T3, TIPE1 M2 truncation (101-186aa) (UniProt Q8WVP5).
T3 sequence: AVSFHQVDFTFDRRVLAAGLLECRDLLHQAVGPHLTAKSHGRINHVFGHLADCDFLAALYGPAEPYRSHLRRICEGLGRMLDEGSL
Described as above.

Another test addresses STAT3-His (UniProt P40763). Nature of the test: co-IP; HEK293T cells transfected with PRMT1-HA and STAT3-His together with increasing amount of TIPE1-Flag.

With “PRMT1-HA, full-length PRMT1 (from UniProt Q99873 1-371) (enzyme)”, the binding result is recorded as “binds” in test [1]; “binds” in test [2]; “binds” in test [3]; “no binding” in test [4]; “binds” in the test with STAT3-His.
